42 compounds from ChEMBL document CHEMBL4888484, “Replenishing the malaria drug discovery pipeline: Screening and hit evaluation of the MMV Hit Generation Library 1 (HGL1) against asexual blood stage Plasmodium falciparum ,using a nano luciferase reporter read-out” (2022) can be followed below.

Structures are written as SMILES. Out of some 150,000 compounds screened, about 540 (0.36%) showed an effect of 50% or more. This is one part of the list.

In this assay the test system is Plasmodium falciparum. As to the kind of experiment: Primary screen in NF54 nanoGlo assay, in single point, at 2uM, 72h; a lower Z score goes with more inhibition. In kind it is functional, Erythrocyte. The settings on record: timepoint 72 hour.
Regarding `C[C@]1(n2cc(CNc3ccc(Cl)cn3)cn2)CCS(=O)(=O)C1`, the “% Inhibition” value was -11% and the Z score came to 1.54.
In the case of `Cc1csc(C(=O)NCCN2CCN(S(C)(=O)=O)CC2)c1`, the “% Inhibition” value turned out to be 1% and the Z score was -0.14.
For `CC(CO)(CO)Nc1ncc(Cl)cn1`, the “% Inhibition” value was -8% and the Z score was determined as 1.22.
Taken in the same sequence, the figures for `CO[C@H]1CCN(Cc2sc(C)nc2C)C1` were -2% and 0.27.
As to `N#CCC(=O)NC(=O)Nc1ccccc1`, the “% Inhibition” value is given as -5% and the Z score was 0.64.
Taken in the same sequence, the figures for `CCNC(=O)C(C)(C)CNC(=O)C(C)N1C(C)CCC1C` (centres undefined) were -17% and 2.16.
For the compound `C=CCn1c(C)c(CC(=O)NCc2ccccc2C)c(=O)n2nc(-c3ccc(C)cc3)nc12`, the “% Inhibition” value is -7% and the Z score stood at 0.81.
Taken in the same sequence, the figures for `O=C(C(=O)N1CCCO[C@@H](CN2CCOCC2)C1)c1cccnc1` were 11% and -1.47.
For `CCNC(=O)[C@H](C)NS(=O)(=O)c1sc2ccccc2c1Cl`, in that order: -9% and 0.95.
As for `CC(C)OC[C@H]1CN(C(=O)CCn2ncn(C)c2=O)CCO1`, the “% Inhibition” value came to 0% and the Z score was -0.06.
For `Cc1nc2n(n1)CCN(Cc1ncc(-c3ccccc3)o1)C2`, in that order: -12% and 1.46.
On to `O=C(CC1CCCC1)Nc1nc(-c2cccc3ccccc23)cs1`, for which the “% Inhibition” value is recorded as -9% and the Z score stood at 1.34.
Taken in the same sequence, the figures for `Cc1cc(CNC(=O)Nc2nnn(C(C)C)n2)ccn1` were 2% and -0.32.
For `CCOC(=O)c1coc(N(C)CCc2scnc2C)n1`, in that order: -18% and 2.38.
Taken in the same sequence, the figures for `Cc1ccc(CN(C)C(=O)c2ccc3c(c2)OCO3)o1` were -11% and 1.43.
Turning to `CC(C)C(=O)N1CCc2nc[nH]c2[C@@H]1C1CCN(Cc2ccccc2)CC1`, the “% Inhibition” value is listed as -6% and the Z score turned out to be 0.89.
As to `Cc1ccc(S(=O)(=O)N[C@H](C(=O)NCCCc2nnc3n2CCCC3)C(C)C)cc1C`, the “% Inhibition” value is reported as -5% and the Z score worked out at 1.09.
Taken in the same sequence, the figures for `CCOC(=O)c1noc2ncnc(NCCc3ccc(Cl)cc3)c12` were 2% and -0.35.
Taken in the same sequence, the figures for `COc1cc(C(=O)Nc2ccc3c(c2)nc(CN2CCCCCC2)n3C)cc(OC)c1OC` were 3% and -0.53.
Take `CC[C@H](NS(=O)(=O)N1CCC(OC)CC1)c1ncnn1CC`: the “% Inhibition” value is reported as -11% and the Z score was 1.44.
For `COc1cc(=O)n2c(c1C(=O)Nc1ccc(Cl)c(C)c1)CCCC2`, in that order: -5% and 0.82.
Consider `Cc1ccccc1N1C(=O)CN(C(=O)C2COc3ccccc3O2)CC1C` (centres undefined), for which the “% Inhibition” value is -1% and the Z score is reported as 0.18.
On to `Cn1cccc1C(=O)N1C[C@H]2CN(C(=O)c3ccccc3)C[C@@]2(CO)C1`, for which the “% Inhibition” value is listed as -16% and the Z score was 2.12.
In the case of `O=C(CN(C1CCCC1)C1CCCC1)Nc1ccc(Br)cc1F`, the “% Inhibition” value is reported as 1% and the Z score is reported as -0.09.
For `Cn1ncc(-c2ncc(C(F)(F)F)cc2Cl)c1NC(=O)c1ccccc1Cl`, in that order: 29% and -3.7.
`C#CC(NC(=O)c1cnc2n1CCOC2)C1CCCO1` (centres undefined): the “% Inhibition” value is recorded as -1% and the Z score turned out to be 0.18.
For `CCn1cc(S(=O)(=O)N2CCC(C)(c3noc(C)n3)CC2)cn1`, in that order: -5% and 0.62.
For `COc1ccc(N2CCN(C(=O)c3ccc(NCCc4ccc(OC)c(OC)c4)c(S(=O)(=O)Nc4cccc(OC)c4)c3)CC2)cc1`, in that order: 24% and -2.9.
For `CO[C@H]1CN(C)C[C@@H]1NS(=O)(=O)c1ccccc1C`, in that order: 1% and -0.24.
For the compound `O=C(COc1ccc(F)cc1)N1CCC[C@H](CN2CCCC2)CC1`, the “% Inhibition” value is on record as -1% and the Z score came to 0.2.
As for `Cc1ccc(-c2noc(-c3cn(CC(=O)Nc4ccccc4F)c4nc(C)ccc4c3=O)n2)cc1`, the “% Inhibition” value is 21% and the Z score is -1.88.
For the compound `COc1cc(C)nc(NCCn2ccc(=O)[nH]c2=O)n1`, the “% Inhibition” value is 2% and the Z score is listed as -0.34.
For the compound `C[C@@H]1CN(CC(=O)N(C)Cc2cc3cc(F)ccc3[nH]2)C[C@H](C)O1`, the “% Inhibition” value is on record as -7% and the Z score is 1.28.
Taken in the same sequence, the figures for `O=C(Cc1n[nH]c(=O)c2ccccc12)N1CC[C@@]2(O)CCCC[C@H]2C1` were -10% and 1.23.
As for `COc1ccc(CN(C[C@H](O)COC(C)C)C(C)C)cc1OC`, the “% Inhibition” value is reported as -11% and the Z score is reported as 1.26.
For `c1cc2occc2c(NCC2(C3CC3)CC2)n1`, in that order: -9% and 1.4.
For `CC(C)C(=O)N(CCCN1CCCC1)[C@H]1CCCN(C(=O)c2cscn2)C1`, in that order: -2% and 0.37.
Turning to `COCC[C@H]1CN(C(=O)CC(=O)Nc2ccccc2C)CCO1`, the “% Inhibition” value was determined as 2% and the Z score is reported as -0.21.
In the case of `CCc1nc2c(NS(=O)(=O)c3c(C)noc3C)cccn2n1`, the “% Inhibition” value is given as -1% and the Z score is 0.11.
Taken in the same sequence, the figures for `CC(C)CC(=O)N1CC[C@@H](CC(=O)O)[C@@H](Cc2nc3ccccc3n2C)C1` were -7% and 0.88.
Taken in the same sequence, the figures for `CCOC(=O)C(C)(C)c1csc([C@H](C)OC)n1` were 5% and -0.46.
`CC(=O)N(CCN1CCOCC1)[C@H]1CCN(C(=O)C2CCCC2)C1`: the “% Inhibition” value is -2% and the Z score is reported as 0.45.

The % Inhibition is the relative decrease from the control value, in per cent.
